According to article PMC4336329 (PLoS ONE, 2015):
Among all 310,000 compounds or so, about 2,200 (0.71%) showed an effect of 50% or more. The effect is printed as a negative number. This is one part of the list.

target: human ether-à-go-go-related gene (hERG) potassium channel (human, UniProt Q12809); assay: primary screen, population patch clamp on CHO cells stably expressing hERG
Sequence (Q12809 whole entry, looked up): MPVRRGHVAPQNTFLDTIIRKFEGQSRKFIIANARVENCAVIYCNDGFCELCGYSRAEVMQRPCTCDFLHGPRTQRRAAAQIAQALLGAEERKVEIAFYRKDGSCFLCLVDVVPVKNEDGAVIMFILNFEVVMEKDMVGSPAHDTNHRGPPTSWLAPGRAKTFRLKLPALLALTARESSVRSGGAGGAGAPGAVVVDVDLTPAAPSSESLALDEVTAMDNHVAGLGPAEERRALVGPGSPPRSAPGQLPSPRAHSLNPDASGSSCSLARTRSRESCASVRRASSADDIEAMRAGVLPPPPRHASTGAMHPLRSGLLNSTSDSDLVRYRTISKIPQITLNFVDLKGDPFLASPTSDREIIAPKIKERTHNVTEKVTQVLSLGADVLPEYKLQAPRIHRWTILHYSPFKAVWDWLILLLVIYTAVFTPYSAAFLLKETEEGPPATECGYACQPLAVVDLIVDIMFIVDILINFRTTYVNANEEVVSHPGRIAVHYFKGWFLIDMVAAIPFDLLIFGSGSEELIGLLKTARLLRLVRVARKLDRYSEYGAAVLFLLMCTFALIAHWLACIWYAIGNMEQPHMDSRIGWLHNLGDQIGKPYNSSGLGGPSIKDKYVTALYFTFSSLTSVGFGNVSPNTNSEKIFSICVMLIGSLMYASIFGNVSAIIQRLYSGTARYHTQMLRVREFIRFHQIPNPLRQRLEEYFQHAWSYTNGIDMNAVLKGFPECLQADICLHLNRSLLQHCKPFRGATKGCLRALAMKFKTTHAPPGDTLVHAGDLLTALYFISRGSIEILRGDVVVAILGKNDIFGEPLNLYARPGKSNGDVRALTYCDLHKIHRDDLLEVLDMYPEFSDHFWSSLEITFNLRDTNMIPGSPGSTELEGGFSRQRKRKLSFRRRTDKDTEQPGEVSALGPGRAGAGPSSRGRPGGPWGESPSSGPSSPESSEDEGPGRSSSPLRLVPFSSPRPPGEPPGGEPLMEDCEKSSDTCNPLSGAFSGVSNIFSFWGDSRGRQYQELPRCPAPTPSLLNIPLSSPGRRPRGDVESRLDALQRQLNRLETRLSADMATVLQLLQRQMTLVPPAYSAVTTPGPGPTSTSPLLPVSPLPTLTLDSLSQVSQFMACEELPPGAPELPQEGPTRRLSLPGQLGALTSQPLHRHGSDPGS

SMILES	hERG current change (%, negative = inhibition) at 1uM
C[C@@H](NC(=O)c1ncn(Cc2ccccc2)c1C(=O)N[C@H](C)c1ccccc1)c1ccccc1	8.14%
COC(=O)C(NS(=O)(=O)c1ccccc1Cl)c1ccccc1 (centres unmarked)	15.5%
CC(=O)NC(Cc1cccc(C)c1)C(=O)NC1CCN(S(=O)(=O)c2ccccc2)CC1 (centres unmarked)	1.44%
CCOC(=O)c1c(-c2ccccc2Cl)csc1NC(=O)c1cc(S(=O)(=O)N2CCOCC2)ccc1C	15%
CC(C)(C)N(Cc1ccccc1)C(=O)COC(=O)Cn1cnc2ccccc2c1=O	4.17%
O=C(O)c1ccccc1C(=O)N1CC=C(c2ccccc2)CC1	7.75%
O=C(CN(C(=O)c1csnn1)c1cccc(C(F)(F)F)c1)NC1CCCC1	13.2%
O=C(COC(=O)c1ccco1)c1ccc(S(=O)(=O)N2CCCCC2)cc1	10.4%
Cc1ccccc1OCc1nc2ccccc2c(=O)n1/N=C/c1cn[nH]c1-c1ccc(Br)cc1	14.1%
CCOC(=O)c1[nH]c2ccccc2c1NC(=O)CN(C)C	15.1%
c1ccc(-c2ccc(-c3[nH]ncc3CN3CCC(N4CCSCC4)CC3)cc2)cc1	1.79%
COc1ccc(CN2CCC(C)CC2)cc1OCc1ccccc1	-5.87%
Cc1ccc(SCC(=O)OCC(=O)NCCNC(=O)COC(=O)CSc2ccc(C)c(C)c2)cc1C	3.61%
COc1ccc(Cn2nnnc2C(c2ccc3ncccc3c2)N2CCN(C3CCCCC3)CC2)cc1 (centres unmarked)	-79.3%
O=C(Cn1c(=O)oc2ccccc21)N1CCOCC1	16.6%
Cc1c(NC(=O)/C(C#N)=C/c2ccc(-c3ccc(Cl)c(Cl)c3)o2)c(=O)n(-c2ccccc2)n1C	4.03%
C=CCN(CC=C)Cc1cc(=O)n2c(-c3ccccc3)csc2n1	14.9%
CCOC(=O)[C@H]1[C@H]2COc3ccc(Cl)cc3[C@@H]2N2C(=O)c3ccc(F)cc3NC(=O)[C@@]12C	9.77%
CCc1ccc(C(=O)NC(C(=O)NCC2CCCO2)C(C)C)cc1 (centres unmarked)	19.9%

SMILES	hERG current change (%, negative = inhibition) at 1uM
COc1cccc(NC(=S)N(CCCN2CCC(C)CC2)Cc2cccs2)c1	-33.5%
CCOc1[nH]n(-c2ccccc2)c(=O)c1C=NCC(=O)OC	-2%
O=C(NCc1ccco1)c1ccc2c(c1)N(Cc1ccc(Cl)cc1)CCS2	0.373%
COc1cc(/C=C/C(=O)OCC(=O)NCC(=O)Nc2cccc(C)c2C)ccc1OC(F)F	7.65%
CCCCNC(=O)c1ccc2c(c1)C(=O)N(Cc1ccncc1)C2=O	-0.381%
O=C(COc1ncnc2sccc12)Nc1ccc(F)cc1F	9.9%
Cc1cc(N2CCOCC2)c2c(N)cc(C)c(C)c2n1	-11.5%
OCC[C@@H]1C[C@H](O)[C@@H](O)[C@@]2(Cc3ccccc3CCO2)O1	9.03%
CC(=Nc1ccccc1)c1sc2ccccc2c1O	8.35%
CSc1ccc(C(=O)c2[nH]c(=O)[nH]c2C)cc1	7.87%
COc1ccccc1OCC(=O)Nc1cc(C)ccc1NC(=O)c1ccco1	9.76%
CN1CCN(C(=O)Cn2c(=O)oc3cc(S(=O)(=O)NCc4ccccc4)ccc32)CC1	8.23%
Cc1c(C(=O)Nc2ccc(Nc3ccccc3)cc2)cccc1[N+](=O)[O-]	11.8%
CCn1c(=O)[nH]c2ccccc2c1=O	21%
CCC(CC)COC(=O)C1=C(C)NC(=O)NC1c1ccc2c(c1)OCO2 (centres unmarked)	5.82%
COc1ccccc1OCC(=O)NCC(c1cccs1)N1CCOCC1 (centres unmarked)	2.95%
CCOc1ccc(S(=O)(=O)Nc2ccncc2)c(C)c1C	6.12%
O=C(COC(=O)CNC(=O)c1ccc(Cl)cc1Cl)NCC1CCCO1 (centres unmarked)	7.97%
CCOC(=O)c1cnc2c(cnn2C)c1NCCC#N	-0.612%

SMILES	hERG current change (%, negative = inhibition) at 1uM
CCOC(=O)N1CCC(N2CCCC(C(=O)c3cc(F)ccc3OC)C2)CC1 (centres unmarked)	-52.2%
CCC(OC(=O)C1=Cc2ccccc2OC1)C(=O)NCc1ccco1 (centres unmarked)	15.1%
COc1ccc(-c2oc(NC(=O)CSc3ncn[nH]3)c(C#N)c2-c2ccc(OC)cc2)cc1	20.9%
CCn1c(COc2cccc(OC)c2)nnc1SCC(=O)NCC1CCCO1 (centres unmarked)	13.1%
O=C(O)c1ccccc1C(=O)NCc1c(Cl)cccc1Sc1ccc(Cl)cc1	12.9%
O=C(NCc1ccccc1CN1CCCCC1)c1ccc(Cl)cc1N1CCCC1=O	1.43%
Cc1ccc2nc(SCC(=O)Nc3ccccc3N3CCOCC3)c(C#N)cc2c1	3.99%
COc1ccc(OC)c(C(=O)CSc2nnnn2C)c1	2.45%
Clc1ccccc1OCc1nnc2n1CCCCC2	-2.53%
S=c1[nH]nc(C2CCCCC2)n1/N=C/C(Cl)=C\c1ccccc1	6.87%
CNC(=O)c1[nH]cnc1C(=O)N[C@@H](Cc1ccccc1)C(=O)OC(C)(C)C	7.83%
O=C(NCc1ccco1)C1CCCN1C(=O)Nc1ccc(Cl)cc1 (centres unmarked)	14.7%
COc1ccc2c(c1)SCC(=O)N2C	-1.11%
CN(C)CCn1c2c(c(SCC(=O)Nc3ccccc3)nc1=O)CCCC2	-0.74%
Cc1ccc(/C=C2\C(=O)NC(=O)N(CC3CCCO3)C2=O)s1 (centres unmarked)	9.43%
COc1ccccc1NC(=O)CCN1CC(C)OC(C)C1.Cl (centres unmarked)	14.8%
CCc1cc(=O)[nH]c(SCC(=O)NCC2CCCO2)n1 (centres unmarked)	6.78%
COc1ccc(-n2nc(C(=O)NCC(=O)Nc3cc(OC)c(OC)c(OC)c3)c3ccccc3c2=O)cc1OC	13.2%
